Consider 34 compounds from the supplement of paper PMC8512760.

Where a name gives a salt, the structure may show the parent alone. The list shows a part of the results. Repeats are few or missing, and single values can be far off.
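Note: stably firefly luciferase-GFP labeled cells in 96-well plates, viability read as luciferase photon flux after d-luciferin addition, treated wells normalized to vehicle wells, single-dose high-throughput screen.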

In the assay the test system is HCC-1187. In words: cell viability relative to vehicle (% of vehicle); basal-like triple-negative breast cancer lines; higher = less cytotoxic. The settings on record: 10 µM; 72 h.
In turn, `CCC1=C[C@H]2CN3CCc4c([nH]c5ccccc45)[C@@](C(=O)OC)(C2)[C@@H]13` [Catharanthine] displayed a cell viability of 79.4.

`CCCN1CC(CSC)CC2c3cccc4[nH]cc(c34)CC21.CS(=O)(=O)O` (centres undefined) [Pergolide mesylate] gave a cell viability of 116.

With `Cn1c(COP(=O)(NCCBr)NCCBr)cnc1[N+](=O)[O-]`, the cell viability came to 58.9.

Take `CC(C)NCC(O)c1ccccc1Cl.Cl` (centres undefined) [Clorprenaline HCL]: the cell viability turned out to be 99.7.

Compound `CCCCCCCCCCCCCCCC[N+](C)(C)C.[Br-]` [Cetrimonium Bromide (CTAB)] showed a cell viability of 22.6.

Compound `CC(C)N(CCNC(=O)CN1CCCC1=O)C(C)C` [Pramiracetam] displayed a cell viability of 106.

On to `OC(c1ccccc1)(c1ccccc1)C1CCNCC1` [Azacyclonol], for which the cell viability is 80.3.

Consider `Cc1c(N)nc(C(CC(N)=O)NCC(N)C(N)=O)nc1C(=O)NC(C(=O)NC(C)C(O)C(C)C(=O)NC(C(=O)NCCc1nc(-c2nc(C(=O)NCCC[S+](C)C)cs2)cs1)C(C)O)C(O[C@@H]1O[C@@H](CO)[C@@H](O)[C@H](O)[C@@H]1O[C@H]1O[C@H](CO)[C@@H](O)[C@H](OC(N)=O)[C@@H]1O)c1cnc[nH]1` (some centres undefined) [Bleomycin Sulfate], for which the cell viability came to 51.1.

Regarding `O.O=P1(N(CCCl)CCCl)NCCCO1` (centres undefined) [Cyclophosphamide monohydrate], the cell viability amounted to 96.1.

In turn, `CCCC1CC(=O)N(C(CC)C(N)=O)C1` (centres undefined) [Brivaracetam] came in with a cell viability of 92.6.

`C=CCN1CCC23c4c5ccc(O)c4OC2C(=O)CCC3(O)C1C5.Cl` (centres undefined) [Naloxone HCl]: the cell viability was found to be 77.1.

In the case of `CN1C(=O)CCS(=O)(=O)C1c1ccc(Cl)cc1` (centres undefined) [Chlormezanone], the cell viability turned out to be 76.

In turn, `O=C(OC1C[N+]2(CCCOc3ccccc3)CCC1CC2)C(O)(c1cccs1)c1cccs1.[Br-]` (centres undefined) [Aclidinium Bromide] yielded a cell viability of 85.4.

In the case of `NCCC(O)(P(=O)([O-])O)P(=O)([O-])O.[Na+].[Na+]` [Pamidronate Disodium], the cell viability was determined as 84.4.

`COc1cc2c(cc1OC)C13CCN4CC5=CCOC6CC(=O)N2C1C6C5CC43` (centres undefined) [Brucine] gave a cell viability of 102.

As to `Cc1ccc(-n2nccn2)c(C(=O)N2CCN(c3nc4cc(Cl)ccc4o3)CCC2C)c1` (centres undefined), the cell viability worked out at 70.9.

As for `Br.COC(=O)C1=CCCN(C)C1` [Arecoline hydrobromide], the cell viability is 91.8.

`CCOC(=O)c1cncn1C(C)c1ccccc1.Cl` (centres undefined) [Etomidate hydrochloride]: the cell viability came to 87.6.

`CCNCC.O=S(=O)(O)c1cc(O)ccc1O` [Ethamsylate]: the cell viability came to 91.5.

In turn, `O=P1(NCCCl)OCCCN1CCCl` (centres undefined) [Ifosfamide] had a cell viability of 88.1.

For `C#CC1(O)C=CC2C3CCC4=CC(=O)CCC4C3CCC21CC` (centres undefined) [Gestodene], the cell viability is 123.

`Cl.NCCc1c[nH]c2ccc(O)cc12` [Serotonin HCl] showed a cell viability of 111.

The compound `CC12CCC3C(CC=C4CC(O)CCC43C)C1CCC2=O` (centres undefined) [Dehydroepiandrosterone (DHEA)] had a cell viability of 112.

The compound `CCOC(=O)c1cncn1C(C)c1ccccc1` (centres undefined) [Etomidate] returned a cell viability of 98.8.

Regarding `CC(=O)Nc1cc([As](=O)(O)O)ccc1O` [Arsonic acid], the cell viability was 106.

In the case of `CCC1(c2cccc(O)c2)CCCCN(C)C1.Cl` (centres undefined) [Meptazinol HCl], the cell viability came to 91.6.

`NCC1(CC(=O)O)CCCCC1` [Gabapentin]: the cell viability turned out to be 69.5.

For `C[N+]1(C)CCCC(OC(=O)C(O)(c2ccccc2)c2ccccc2)C1.[Br-]` (centres undefined) [Mepenzolate Bromide], the cell viability came out at 93.

The compound `CCN(C)C(=O)Oc1cccc(C(C)N(C)C)c1` (centres undefined) [Rivastigmine] registered a cell viability of 108.

`C[C@]12CC[C@H]3[C@@H](CC[C@@]45O[C@@H]4C(O)=C(C#N)C[C@]35C)[C@@H]1CC[C@@H]2O` [Trilostane]: the cell viability was determined as 59.

`NC(=O)CN1CC(O)CC1=O` (centres undefined) [Oxiracetam] yielded a cell viability of 106.

`CN1[C@@H]2C[C@@H](O)C[C@H]1[C@@H]1O[C@@H]12` [Scopine]: the cell viability is 123.

In the case of `N/C(N)=N\N.Cl` [Aminoguanidine hydrochloride], the cell viability is 78.7.

For `C[C@]12COC(=O)C[C@@H]1CC[C@@H]1[C@@H]2CC[C@@]2(C)[C@H]1CC[C@]2(C)O` [Oxandrolone], the cell viability came out at 92.6.
